# Test results reported in PubChem BioAssay AID504466 (National Center for Advancing Translational Sciences (NCATS), 2011).
# Values joined by “and” are separate entries in the source; they are usually repeats but may differ in a detail not shown here. Equal values may be shown once. The whole screen tested about 330,000 compounds, of which about 4,200 (1.3%) were called active. This list was built around the results that the source calls inconclusive (neither active nor inactive); the mix of calls is not that of the screen. Calls follow the shape of the dose curve; as a rule, active = well fitted activation curve with a large enough effect; inconclusive = small, poorly fitted or top-dose-only effect; inactive = no such curve, though single readings can be large or run the other way. A potency beside an inconclusive call is a rough fit, not a confirmed value.
# Assay: qHTS screen for small molecules that induce genotoxicity in human embryonic kidney (HEK293T) cells expressing luciferase-tagged ELG1; also: nearly all actives have a fitted effect of over 60% in size; as to activity change, positive = activation: % of control where 0% means no effect
# Details: HEK293T ELG1-luciferase reporter, luminescence, 16 h; series mostly up to 46 µM; activity change, positive = activation: at the top concentration
# Summary of the method: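 Cells (2,000/well) expressing the ELG1-luciferase fusion are dosed by pin tool and kept 16 hr at 37 °C, 5% CO2. Signal comes from ONE-Glo luciferase reagent after 30 min at room temperature.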
# Potency is read from the fitted curve at half-maximal effect; tags tell the direction and shape of the fitted curve.
Compound,Potency,"activity change, positive = activation"
CCC1CCCCN1C(=O)c1ccc(OC2CCN(C(=O)C3CC3)CC2)cc1 (configuration not stated),"inconclusive: 20.6 µM [activator, single point]",–
CCOC(=O)c1c(C)[nH]c(C(=O)COC(=O)c2cn(CC)c3nc(C)ccc3c2=O)c1C,–,inactive: 3.99%
Cc1ccc(C(=O)COC(=O)c2cn3ccccc3n2)cc1,"inconclusive: 8.2 µM [activator, partial curve]",–
Cn1nc(C(F)(F)F)c(CO)c1Sc1ccc(F)cc1,–,inactive: -11.6%
Cc1ccc(N(C(=O)c2csnn2)C(C(=O)NC(C)(C)C)c2ccncc2)cc1 (configuration not stated),–,inactive: 3.33%
CS/C(N)=N/N=C/c1cc(C)ccc1O,active: 7.3 µM,–
C/C(=N\Nc1nc(-c2ccccc2)cs1)c1cccs1,"inconclusive: 4.11 µM [activator, partial curve]",–
CNC(=S)Nc1ccc(-c2nc3ccc(C)cc3s2)cc1,"inconclusive: 1.64 µM [activator, full curve]",–
CCOc1ccccc1C(=O)NCC(=O)NNC(=O)c1cccs1,–,inactive: -0.697%
O=C(Nn1c(SCc2ccc([N+](=O)[O-])cc2)nc2ccccc2c1=O)c1ccc(F)cc1,"inconclusive: 0.13 µM [activator, full curve]",–
Cc1cccc(Nc2nc(-c3ccccc3)cs2)n1,active: 2.91 µM,–
COCCNS(=O)(=O)c1ccc(-c2ccc(Cl)cc2)cc1,–,inactive: 2.26%
CC(C)NC(=O)CCc1nnc(Cc2cccc(C(F)(F)F)c2)o1,"inconclusive: 18.3 µM [activator, single point]",–
COc1ccc2c(=O)cc(-c3ccccc3F)oc2c1,"inconclusive: 18.3 µM [activator, partial curve, poor fit]",–
O=C(/C=C/Nc1ccccc1C(F)(F)F)c1ccco1,active: 2.91 µM,–
Clc1ccc(OCc2nc(-c3ccc(Br)o3)no2)cc1,"inconclusive: 29.1 µM [activator, partial curve, poor fit]",–
COc1ccc2c(c1)CC/C2=N\OC(=O)c1ccccc1OC,"inconclusive: 18.3 µM [activator, single point]",–
O=C1c2ccccc2C(=O)N1c1ccc(-c2nc3ccccc3o2)cc1,–,inactive: 9.84%
C/C(CC(=O)Nc1ccc(N(C)C)cc1)=N\NC(=O)c1ccccc1F,–,inactive: 12.6%
CCc1ccc(NC(=O)C2(C)Cc3ccccc3C(=O)O2)cc1 (configuration not stated),"inconclusive: 20.6 µM [activator, partial curve, poor fit]",–
Cc1ccc(C(=O)NC2(O)C(=O)c3ccccc3C2=O)cc1C,–,inactive: -1.66%
COCn1c(-c2ccc(OC)cc2)nc2ccccc21,"inconclusive: 11.6 µM [activator, partial curve]",–
O=C(Nc1ccc(Br)cc1)c1cc(-c2cccs2)on1,"inconclusive: 29.1 µM [activator, single point]",–
C=C(C)C(=O)O[C@H]1C/C(C)=C\C(=O)/C=C(\C)[C@H](O)[C@@H]2OC(=O)C(=C)[C@@H]21,"inconclusive: 2.91 µM [activator, partial curve, poor fit]",–

Compound,Potency,"activity change, positive = activation"
Nc1ncnc2c1ncn2[C@@H]1O[C@H](CNCc2ccccc2OC2OC(CO)C(O)C(O)C2O)[C@@H](O)[C@H]1O (some centres not stated),–,inactive: 17.6%
CCC(c1nnc(SCCNCCO)n1CCN1CCOCC1)N(C)C (configuration not stated),–,inactive: 1.25%
O=C(CN1CCC(C(=O)c2cccc(Cl)c2)CC1)Nc1ccc(C(=O)O)cc1,–,inactive: 2.15%
CCOc1ccc(C(=O)Nc2ccc(-c3nc4ccccc4[nH]3)cc2)cc1[N+](=O)[O-],"inconclusive: 18.3 µM [activator, single point] and inconclusive: 14.6 µM [activator, partial curve, poor fit]",–
CCOC(=O)C1=C(CN2CCN(C(=O)c3ccco3)CC2)NC(=O)NC1c1ccc(OC)cc1 (configuration not stated),–,inactive: 0.128%
CC(=O)Nc1cccc(C(=O)N/N=C/c2c[nH]c3ccccc23)c1,–,inactive: 3.86%
COc1ccc(C(=O)N(C)C(C)c2ccon2)cc1OC1CCN(C(C)C)CC1 (configuration not stated),–,inactive: 16.6%
CC(C)c1ccc(NC(=O)COc2ccccn2)cc1,"inconclusive: 5.8 µM [activator, full curve, poor fit]",–
O=S(=O)(N/N=C\c1cccc(F)c1)c1ccccc1,"inconclusive: 18.3 µM [activator, partial curve, poor fit]",–
Cc1cccc(NC(=O)c2cnccn2)c1,"inconclusive: 32.6 µM [activator, partial curve, poor fit]",–
Cc1ccc(NC(=S)NC(=O)C2CCCC2)c(Br)c1,"inconclusive: 9.2 µM [activator, partial curve, poor fit]",–
CSc1cccc(NC(=O)/C=C/c2ccco2)c1,"inconclusive: 20.6 µM [activator, partial curve, poor fit]",–
Cc1ccc(NC2=CC(=O)CC(C)(C)C2)cc1Cl,–,inactive: -4.63%
Cc1nc2ccc(NC(=O)c3ccc4ccccc4n3)cc2s1,"inconclusive: 11.6 µM [activator, partial curve]",–
O=C(COC(=O)CCSc1ccc(F)cc1)NCc1ccc(F)cc1,–,inactive: 2.28%
Cn1cccc1/C=C1\SC(=Nc2cccc(O)c2)NC1=O,"inconclusive: 11.6 µM [activator, partial curve]",–
O=C(O)C(=O)/C(=C\c1ccc(Cl)cc1)c1ccc2ccccc2n1,"inconclusive: 5.8 µM [activator, partial curve]",–
O=C(CSc1nnc(-c2ccc3c(c2)OCO3)o1)Nc1c(F)cccc1F,"inconclusive: 23.1 µM [activator, partial curve, poor fit]",–
O=C(OCC(=O)N1CCc2ccccc21)c1ccccc1[N+](=O)[O-],"inconclusive: 2.06 µM [activator, partial curve]",–
CCCCc1cc(=O)oc2cc(C)cc(OCC(=O)Nc3ccccn3)c12,"inconclusive: 18.3 µM [activator, partial curve]",–
CCCn1c(N)c(C(=O)CSc2nc(C)nc3sc(C)c(C)c23)c(=O)[nH]c1=O,–,inactive: 21.1%
CCN1CCN(C(=O)C(Cc2ccccc2)NC(=O)c2ccc(Cl)c(S(=O)(=O)N(C)C)c2)CC1 (configuration not stated),–,inactive: -1.07%
COc1cccc(/C=C/C(=O)NNC(=O)c2ccccc2)c1OC,"inconclusive: 13 µM [activator, partial curve]",–
